Lines with a small IC50 respond at low doses; where the fit passes the top or lowest dose, that dose stands as a limit. AUC is the area under the same curve over the 256-fold range up to the top dose, as a fraction: 1 means no effect, lower means more sensitive. For part of these data: A top dose marked as inferred comes from the curve model; the source does not state it. For part of these data: An entry number marks a drug with two screens in the source, which often give different values.
Experiments:
Experiment in all cases: Viability of human cancer cell lines after 72 h of drug (GDSC screen)
[1] = compound: O=S(=O)(O)c1ccc2cc(N=Nc3cc(S(=O)(=O)O)c4cccnc4c3O)ccc2c1 [NSC-87877]; conditions: top dose 16 µM; top dose inferred
Description: (§1)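 Human cancer cell lines in 384-well plates, medium with 10% serum, drug for 72 h over a 256-fold dose range (nine 2-fold or five 4-fold steps up to the top dose). Adherent lines were fixed and stained with the nucleic acid dye Syto60, suspension lines read with resazurin; signal relative to control wells, capped at 0 and 100%. One two-parameter sigmoid per drug and line, fitted in a mixed model over all curves with the slope shared within a line.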

[2] = compound: O=C(Nc1ccc(OC(F)(F)F)cc1)c1sccc1NCc1ccnc2ccccc12 [OSI-930]; conditions: top dose 10.24 µM
Description: as §1

[3] = compound: Cc1ccc(NC(=O)c2ccc(CN3CCN(C)CC3)cc2)cc1Nc1nc(-c2cccnc2)cs1 [Masitinib]; conditions: top dose 20 µM
Description: as §1

[4] = compound: CC/C(=C(\c1ccccc1)c1ccc(OCCN(C)C)cc1)c1ccccc1 [Tamoxifen]; conditions: top dose 5 µM
Description: as §1

[5] = compound: O=C(Nc1cccc(Nc2ncc(Br)c(NCCc3cnc[nH]3)n2)c1)N1CCCC1 [BX-912]; conditions: top dose 10.24 µM; top dose inferred
Description: as §1

[6] = compound: CCCC(=O)OCc1ccc(OC(=O)/C=C(C)/C=C/C=C(C)/C=C/C2=C(C)CCCC2(C)C)cc1 [VNLG/124]; conditions: top dose 5.12 µM; top dose inferred
Description: as §1

[7] = compound: Cc1c(N)nc([C@H](CC(N)=O)NC[C@H](N)C(N)=O)nc1C(=O)N[C@H](C(=O)N[C@H](C)[C@@H](O)[C@H](C)C(=O)N[C@H](C(=O)NCCc1nc(-c2nc(C(=O)NCCC[S+](C)C)cs2)cs1)[C@@H](C)O)[C@@H](OC1OC(CO)C(O)C(O)C1OC1OC(CO)C(O)C(OC(N)=O)C1O)c1cnc[nH]1 [Bleomycin]
Description: as §1

[8] = compound: O=C(/C=C/c1ccc(CN(CCO)CCc2c[nH]c3ccccc23)cc1)NO [LAQ824]; conditions: top dose 1.024 µM; top dose inferred
Description: as §1

[9] = top dose 50 µM, screen: GDSC drug entry 1378, top dose inferred
[10] = top dose 64 µM, screen: GDSC drug entry 190

Cell Line	AUC [1]	IC50 [1] [µM]	AUC [2]	IC50 [2] [µM]	AUC [3]	IC50 [3] [µM]	AUC [4]	IC50 [4] [µM]	AUC [5]	IC50 [5] [µM]	AUC [6]	IC50 [6] [µM]	AUC [7, 9]	IC50 [7, 9] [µM]	AUC [7, 10]	IC50 [7, 10] [µM]	AUC [8]	IC50 [8] [µM]
HLE (liver, adherent)	0.971	> 16	0.984	> 10.2	0.969	> 20	0.964	> 5	0.978	> 10.2	0.95	> 5.12	0.533	3.82	0.486	3.67	0.5	0.0641
HO-1-N-1 (head and neck, adherent)	0.989	> 16	0.983	> 10.2	0.985	> 20	0.958	> 5	0.902	> 10.2	0.984	> 5.12	0.199	0.443	0.541	5.13	0.443	0.0452
HPAC (pancreas, adherent)	0.979	> 16	0.934	> 10.2	0.922	> 20	0.97	> 5	0.809	8.24	0.965	> 5.12	0.896	> 50	0.388	1.74	0.294	0.0131
HPAF-II (pancreas, adherent)	0.963	> 16	0.937	> 10.2	0.93	> 20	0.819	4.05	0.98	> 10.2	0.979	> 5.12	0.748	20.6	0.842	> 64	0.54	0.0848
HSC-3 (head and neck, adherent)	0.969	> 16	0.979	> 10.2	0.919	> 20	0.956	> 5	0.979	> 10.2	0.987	> 5.12	0.072	< 0.195	0.229	0.757	0.344	0.0254
HT-144 (melanoma, adherent)	0.984	> 16	0.975	> 10.2	0.862	> 20	0.97	> 5	0.984	> 10.2	0.981	> 5.12	0.452	2.27	0.141	0.251	0.266	0.0126
HTC-C3 (thyroid, adherent)	0.984	> 16	0.953	> 10.2	0.903	> 20	0.966	> 5	0.956	> 10.2	0.984	> 5.12	0.718	14.1	0.811	39.3	0.491	0.0603

— the supplement of paper PMC4967469
